Reference: PubChem BioAssay AID488969 (Vanderbilt High Throughput Screening Facility, 2010)
Whole data set: some 110,000 compounds, median “z-score” near -0.1, cut for the highest 2% near 2. The list shows a part of the results.

What follows are compounds tested against Metabotropic glutamate receptor 8 (Rattus norvegicus) (UniProt P70579) (assay: rat mGluR8 modulators via GIRK flux, primary screen, cell-based, thallium flux, HTS (AID 488969)). Conditions: HEK293 rat mGluR8, GIRK (G protein-gated inwardly rectifying potassium channel) thallium flux, FluoZin2; at 10 µM; stronger effect = higher value; submaximal glutamate (EC20) added with thallium.
Sequence of UniProt P70579 (P70579 whole entry, looked up): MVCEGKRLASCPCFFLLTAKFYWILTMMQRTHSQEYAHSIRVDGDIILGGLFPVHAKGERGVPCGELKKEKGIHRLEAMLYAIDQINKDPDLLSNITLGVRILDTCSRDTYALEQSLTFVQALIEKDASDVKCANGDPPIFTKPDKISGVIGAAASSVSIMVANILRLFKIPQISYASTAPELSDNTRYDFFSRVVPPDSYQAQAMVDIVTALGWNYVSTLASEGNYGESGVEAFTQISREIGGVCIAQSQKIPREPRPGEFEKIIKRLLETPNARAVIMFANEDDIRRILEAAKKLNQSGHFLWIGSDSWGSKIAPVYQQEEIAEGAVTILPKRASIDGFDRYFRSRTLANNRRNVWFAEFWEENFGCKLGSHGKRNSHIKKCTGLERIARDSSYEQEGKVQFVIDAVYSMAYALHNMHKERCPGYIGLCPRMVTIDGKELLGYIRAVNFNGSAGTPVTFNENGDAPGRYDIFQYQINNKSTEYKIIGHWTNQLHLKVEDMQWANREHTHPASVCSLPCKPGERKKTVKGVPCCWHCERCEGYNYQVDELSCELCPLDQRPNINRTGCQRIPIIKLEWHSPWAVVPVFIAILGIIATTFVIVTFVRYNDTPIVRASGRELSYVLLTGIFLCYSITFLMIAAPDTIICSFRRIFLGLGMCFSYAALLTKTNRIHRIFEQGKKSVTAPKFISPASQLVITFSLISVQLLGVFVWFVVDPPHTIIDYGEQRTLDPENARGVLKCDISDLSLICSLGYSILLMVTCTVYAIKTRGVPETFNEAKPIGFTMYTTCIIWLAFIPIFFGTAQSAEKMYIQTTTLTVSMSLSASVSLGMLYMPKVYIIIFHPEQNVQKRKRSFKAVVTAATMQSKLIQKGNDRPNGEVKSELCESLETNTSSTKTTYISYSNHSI

Compound	z-score
CCN(CC)S(=O)(=O)c1ccc2c(c1)nc(SCC(=O)N1CCCCCC1)n2-c1ccc(OC)cc1	-0.307
Cc1ccc(S(=O)(=O)N2CCCN(c3nc4cc(C)ccc4cc3C#N)CC2)cc1	0.114
O=C(COc1ccccc1)N1CCN=C1c1ccccc1	-0.0473
CCOc1ccc(/C(O)=C2/C(=O)C(=O)N(CCCn3ccnc3)C2c2cccs2)cc1Cl (stereo not given)	0.304
Cc1ccccc1C1C2=C(Nc3[nH]n(-c4ccccc4)c(=O)c31)c1ccccc1C2=O (stereo not given)	0.625
COc1ccc(Cc2nc(-c3ccccn3)no2)cc1	0.268
COC(=O)c1ccc(N/C(=N/S(=O)(=O)c2ccccc2)c2ccccc2)cc1	-0.286
CCOc1ccccc1N1CCN(CC(=O)Nc2nnc(CC)s2)CC1	-0.692
CCOc1ccc2c(=O)c(-c3ccc4c(c3)OCCCO4)c(C)oc2c1	0.521
O=S(=O)(c1cccc(F)c1)N1CCN(Cc2ccc3c(c2)OCO3)CC1	0.162
COCCN(C(=S)Nc1cc(C)ccc1C)C(C)c1cccnc1 (stereo not given)	-0.226
O=C(CSc1nccn1-c1ccc(Cl)cc1)N1CCCc2ccccc21	-0.0979
CCOC(=O)c1sc2nc(CC(C)C)c3c(c2c1N)CCC3	0.235
CCOC(=O)N1CCN(c2c(NCCN3CCCCC3CC)c(=O)c2=O)CC1 (stereo not given)	0.153
CC(C)N(C#N)c1nc(N2CCOCC2)nc(N2CCOCC2)n1	-1.06
CCOC(=O)C1CCCN(C(=O)CCCn2nc(C)n3c(cc4sccc43)c2=O)C1 (stereo not given)	-0.373
COc1ccc(OC)c(N2Cc3ccccc3C2)c1	-0.948
CCC(C)NC(=O)CSc1nc2ccccc2c(=O)n1CCCC(=O)NCC1CCCO1 (stereo not given)	0.139
O=C(CCC1CCCCC1)Nc1ccc(S(=O)(=O)Nc2nccs2)cc1	0.362
CC(=O)Nc1cccc2c1C(=O)NC2=O	0.274
O=C(CN1CCN(c2ccccc2F)CC1)c1c[nH]c2ccccc12	0.0394
CCNc1nc(N)nc(Oc2ccc(OCC)nn2)n1	-0.561
O=C(NCC(c1cccnc1)N1CCN(c2ccccc2)CC1)c1ccc2c(c1)OCO2 (stereo not given)	0.0727
CCOc1ccc(N2C(=O)CC(NC3CCCCNC3=O)C2=O)cc1 (stereo not given)	-0.232
Cc1ccc(CN2CCN(CC(=O)NC(C)c3ccc4c(c3)OCCO4)C2=O)cc1 (stereo not given)	0.0215
CCCOC(=O)c1c(N)sc2c1CCC2	-0.748
CCCCCN(C(=O)NC(=O)Nc1ccc(C)cc1)S(=O)(=O)c1ccccc1	-0.107
CCS(=O)(=O)N1CCCC(C(=O)NCCc2ccc(OC)c(OC)c2)C1 (stereo not given)	0.485
COCCCn1c(=N)c(C(=O)NC2CCCCC2)cc2c(=O)n3ccccc3nc21	-0.225
Cc1ccc(-c2nc3cc(N)ccc3o2)cc1	-0.0633
